Results: paper PMC10407929
Some of the results follow. Measured with an extract: partners may take part in the binding.

Legend:
[1] = molecular target: XRCC6 (Homo sapiens) (UniProt P12956); test: pull-down; conditions: 150 mM NaCl, 50 mM Tris pH 8.0, 0.25% NP-40, 1 mM DTT; 4 C, 2 h; 100 ug nuclear extract; double strand, one strand shown
[2] = molecular target: T1, ZNF740 (Homo sapiens) (UniProt Q8NDX6); test: pull-down; conditions: 150 mM NaCl, 50 mM Tris pH 8.0, 0.25% NP-40, 1 mM DTT; 4 C, 2 h; 100 ug nuclear extract; double strand, one strand shown
T1 sequence: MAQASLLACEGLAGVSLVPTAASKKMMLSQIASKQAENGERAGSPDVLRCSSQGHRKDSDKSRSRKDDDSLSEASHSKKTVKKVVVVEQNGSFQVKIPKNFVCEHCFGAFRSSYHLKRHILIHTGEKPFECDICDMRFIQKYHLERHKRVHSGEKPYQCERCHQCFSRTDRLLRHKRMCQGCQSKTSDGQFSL

UniProt P12956, sequence (P12956 whole entry): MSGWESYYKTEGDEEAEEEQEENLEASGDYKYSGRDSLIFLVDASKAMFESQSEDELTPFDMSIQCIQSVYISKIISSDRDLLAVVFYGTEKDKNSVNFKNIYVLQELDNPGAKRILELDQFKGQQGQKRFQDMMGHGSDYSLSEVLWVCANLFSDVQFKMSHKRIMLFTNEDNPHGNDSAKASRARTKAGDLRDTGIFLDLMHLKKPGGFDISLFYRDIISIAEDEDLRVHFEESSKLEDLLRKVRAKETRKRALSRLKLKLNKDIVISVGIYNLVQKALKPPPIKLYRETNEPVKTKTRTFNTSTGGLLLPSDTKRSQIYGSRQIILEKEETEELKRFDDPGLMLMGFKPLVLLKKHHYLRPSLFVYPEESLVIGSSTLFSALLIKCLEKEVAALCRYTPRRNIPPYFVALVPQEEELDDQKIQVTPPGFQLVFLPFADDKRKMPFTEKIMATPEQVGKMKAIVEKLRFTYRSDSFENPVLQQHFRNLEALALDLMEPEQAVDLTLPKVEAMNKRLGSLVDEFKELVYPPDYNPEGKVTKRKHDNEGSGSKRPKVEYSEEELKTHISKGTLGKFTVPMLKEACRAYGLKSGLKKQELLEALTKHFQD

Sequence | half-maximal binding [1] | half-maximal binding [2]
GCCGCCGCCCTCCCACGCGCTGCCGGGCC [BEND3 bait] | 10.6 nM | 33.4 nM
GAGAGCCCCGCCCCCTGGCT [SP/KLF bait] | 34.5 nM | 135 nM
GCCGCCGCCCTTCTCGCGAGACTGCCGGGCC [CGCG bait] | 99.6 nM | –
